From PubChem BioAssay AID1468 (National Center for Advancing Translational Sciences (NCATS), 2008)
The whole screen tested about 280,000 compounds, of which about 1,100 (0.39%) were called active. Inconclusive means that the source gave no clear call. Such entries were picked first, then a sample of the others. Calls come from the whole dose curve; as a rule, active = well fitted inhibition curve with a large enough effect; inconclusive = small, poorly fitted or top-dose-only effect, or effect the other way; inactive = flat fitted curve, though single readings scatter. No potency is given beside an inconclusive call; the fits are too rough.

biological target: Microtubule-associated protein tau (Homo sapiens) (UniProt P10636); experiment: qHTS for Inhibitors of Tau Fibril Formation, Fluorescence Polarization; conditions: K18 P301L tau heparin fibrillization, Alexa594 FP, 6 h; series mostly up to 57.7 µM; activity, negative = inhibition: at the top concentration; note: nearly all actives have a fitted effect of over 55% in size
Chain of UniProt P10636 (P10636 whole entry, looked up): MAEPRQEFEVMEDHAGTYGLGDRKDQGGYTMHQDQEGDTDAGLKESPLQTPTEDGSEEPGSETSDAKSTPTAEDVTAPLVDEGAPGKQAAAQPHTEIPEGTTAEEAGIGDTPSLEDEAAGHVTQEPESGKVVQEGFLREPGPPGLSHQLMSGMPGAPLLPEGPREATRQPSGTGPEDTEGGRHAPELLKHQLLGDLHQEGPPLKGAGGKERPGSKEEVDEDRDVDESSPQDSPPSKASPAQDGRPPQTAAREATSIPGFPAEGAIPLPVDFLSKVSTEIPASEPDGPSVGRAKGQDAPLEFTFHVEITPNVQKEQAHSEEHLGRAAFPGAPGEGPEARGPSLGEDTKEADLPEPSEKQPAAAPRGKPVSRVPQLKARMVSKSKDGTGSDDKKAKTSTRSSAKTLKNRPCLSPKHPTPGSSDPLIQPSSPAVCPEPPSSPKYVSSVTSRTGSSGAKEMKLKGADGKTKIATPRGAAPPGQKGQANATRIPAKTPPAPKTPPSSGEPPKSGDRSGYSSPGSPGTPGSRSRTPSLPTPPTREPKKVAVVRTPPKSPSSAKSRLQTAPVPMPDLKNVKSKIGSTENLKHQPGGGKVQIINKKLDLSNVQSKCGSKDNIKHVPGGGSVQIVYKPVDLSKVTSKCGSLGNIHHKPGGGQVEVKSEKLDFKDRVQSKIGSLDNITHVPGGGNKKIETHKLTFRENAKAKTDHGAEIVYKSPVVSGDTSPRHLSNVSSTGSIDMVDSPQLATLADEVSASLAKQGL
Summary of the method: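 Compound effects on tau fibrillization are measured by Alexa 594 fluorescence polarization (ex 555, em 632 nm). K18 P301L tau is used at 15 uM with 0.24 uM labeled tracer, and 20 uM heparin induces aggregation over 6 hr at 37 C.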
% is set by controls: 0 for no effect and ±100 for the full control effect; potency is the fitted concentration of half-maximal effect; tags give direction and shape of the fitted curve.

Row | Compound | Potency | activity, negative = inhibition
1 | COc1cc(Cl)c(C)cc1NC(=O)Cn1cc(S(=O)(=O)N2CCN(c3ccccc3F)CC2)c2ccccc2c1=O | inconclusive [inhibitor, single point] | –
2 | Cc1cccc(CCNC(=O)C2CCC(CNS(=O)(=O)c3c(C)cc(C)cc3C)CC2)c1 (stereo not drawn) | – | inactive: 5.41%
3 | CC1(c2ccccc2)NC(=O)N(CC(=O)NC(=O)NC2CCCC2)C1=O (stereo not drawn) | – | inactive: 0.775%
4 | Cc1c(NC(=O)CN2CCN(c3ccc(O)cc3)CC2)c(=O)n(-c2ccccc2)n1C | inconclusive [inhibitor, single point] | –
5 | CC(=O)C1C(c2ccccc2)c2c(noc2C)CC1(C)O (stereo not drawn) | inconclusive [inhibitor, single point] | –
6 | COc1ccc(/C=N/Nc2nc(-c3cccc(S(=O)(=O)N4CCCC4)c3)cs2)cc1OC | – | inactive: 9.59%
7 | Cc1cc2c(c(=O)n1Cc1cccnc1)C(c1ccccc1)C(C#N)=C(N)O2 (stereo not drawn) | – | inactive: -7.85%
8 | CC(Nc1cc(N2CCCC2)ccc1[N+](=O)[O-])c1ccccc1 (stereo not drawn) | inconclusive [inhibitor, single point] | –
9 | Nc1ccc(N)c(C(=O)O)c1 | inconclusive [inhibitor, partial curve] | –
10 | COc1ccccc1CNS(=O)(=O)c1ccc(-c2cc(C(F)(F)F)on2)s1 | inconclusive [inhibitor, single point] | –
11 | CCOC(=O)C1CCCN(CCC(=O)Nc2ccccc2C)C1 (stereo not drawn) | inconclusive [inhibitor, single point] | –
12 | O=C1NCCCC2c3c(cc(Br)c(O)c3Br)OC12N1CCOCC1 (stereo not drawn) | inconclusive [inhibitor, partial curve, poor fit] | –
13 | Cn1nc(-c2ccccc2F)c2cc(C(=O)NCc3ccc(Cl)cc3)sc21 | inconclusive [inhibitor, partial curve, poor fit] | –
14 | COC(=O)[C@@]1(Cc2ccc(F)cc2)[C@H]2c3cc(C(=O)N4CCCC4)n(CCc4c[nH]c5cc(F)ccc45)c3C[C@H]2CN1C(=O)c1ccccc1 | – | inactive: 4.59%
15 | Cc1ccc(C)c(NC(=S)Nc2cccc3cnccc23)c1 | inconclusive [inhibitor, partial curve] | –
16 | CC(=O)NC(c1ccccc1)c1cc([N+](=O)[O-])c2cccnc2c1O (stereo not drawn) | inconclusive [inhibitor, single point] | –
17 | CN1CCc2c(sc3c2C(=O)NC(c2ccccn2)N3)C1 (stereo not drawn) | inconclusive [inhibitor, partial curve] | –
18 | CCOCCn1c(N2CCN(c3ccc(OC)cc3)CC2)nc2c1c(=O)[nH]c(=O)n2C | inconclusive [activator, partial curve] | –
19 | CCOC(=O)c1c(Nc2cccc(C(=O)OC)c2)nnc(-c2ccccc2)c1-c1ccccc1 | – | inactive: -3.75%
20 | COc1ccc(OC)c(C2c3c(-c4ccc(Br)cc4)n[nH]c3C(=O)N2c2ccc(Cl)cc2)c1 (stereo not drawn) | inconclusive [inhibitor, partial curve] | –
21 | CC1=Nc2ccccc2/C1=C/c1sc(=N)n(-c2nccs2)c1O | inconclusive [activator, full curve, poor fit] | –
22 | O=C(O)/C=C/c1cn(-c2ccccc2)nc1-c1cccc([N+](=O)[O-])c1 | – | inactive: 5.37%

Row | Compound | Potency | activity, negative = inhibition
23 | O=C(COC(=O)CCCNC(=O)c1ccc(Cl)cc1)Nc1ccc(Br)cc1 | inconclusive [inhibitor, single point] | –
24 | O=C(Nc1cccc(C(F)(F)F)c1)N1CCC(CN2CCCCCC2)CC1 | – | inactive: -0.59%
25 | COc1ccc(Nc2cc(C(=O)NCCCN(C)Cc3ccccc3)c3ccccc3n2)c(OC)c1 | inconclusive [activator, single point] | –
26 | Cc1ccc(-n2ncc(Br)c(Br)c2=O)cc1 | inconclusive [inhibitor, partial curve] | –
27 | CCn1cc(C(=O)N(C)c2cc(C)ccc2C)c2cc(OC)c(OC)cc2c1=O | – | inactive: -2.93%
28 | CSc1nn(CC(=O)Nc2ccc(C)cc2C)c(N)c1S(=O)(=O)c1ccc(Cl)cc1 | inconclusive [inhibitor, partial curve] | –
29 | Cc1ccc(NS(=O)(=O)c2ccc3nc(-c4ccccc4)[nH]c3c2)cc1Cl | active: 10 µM | –
30 | Cn1c(=O)[nH]c(Nc2ccc(F)cc2)c([N+](=O)[O-])c1=O | – | inactive: 7.16%
31 | O=C(CSc1ccccn1)N/N=C/c1ccccc1[N+](=O)[O-] | – | inactive: -0.777%
32 | COc1cc2c(C(=O)N3CCN(c4ccc(F)cc4)CC3)cn(CC(C)C)c(=O)c2cc1OC | – | inactive: 3.37%
33 | COc1ccc(NS(=O)(=O)c2ccc(NC(=O)c3ccc(N(C)S(C)(=O)=O)cc3)cc2)c(OC)c1 | inconclusive [inhibitor, single point] | –
34 | O=C(CCCN1C(=O)/C(=C\c2ccccc2)SC1=S)Nc1ccccc1O | inconclusive [inhibitor, full curve, poor fit] | –
35 | CCOC(=O)c1cccc(NC(=O)c2ccc(N(C)C)cc2)c1 | – | inactive: 16.6%
36 | CN(C)S(=O)(=O)c1ccc(/C(O)=C2/C(=O)C(=O)N(Cc3cccnc3)C2c2ccncc2)cc1 (stereo not drawn) | inconclusive [inhibitor, partial curve, poor fit] | –
37 | O=C(Nc1ccc(C(=O)Oc2ccccc2)c(O)c1)c1ccccc1 | inconclusive [inhibitor, partial curve] | –
38 | O=C(Nc1cc(S(=O)(=O)Nc2ccc(Cl)cc2)ccc1N1CCCCC1)c1ccc(F)cc1 | inconclusive [inhibitor, single point] | –
39 | CC1CCc2c(sc(/N=C/c3ccco3)c2C(N)=O)C1 (stereo not drawn) | inconclusive [inhibitor, single point] | –
40 | Cc1cc(C)n2nc(CNC(=O)c3cccc(N(C)C)c3)nc2n1 | – | inactive: -13.9%
41 | CC(=O)Nc1cc[n+](C(C)C(=O)c2ccc(Cl)cc2)cc1 (stereo not drawn) | – | inactive: 0.12%
42 | CC(C)C[C@H](NC(=O)c1nc[nH]c1C(=O)NC(c1ccccc1)c1ccccc1)C(=O)OC(C)(C)C | inconclusive [inhibitor, single point] | –
43 | O=C1CC(Nc2ccc(N3CCOCC3)cc2)C(=O)N1c1ccccc1 (stereo not drawn) | – | inactive: -5.44%
